# Measured values from PMC10407929.
# This is one part of the list. The protein was read in a cell extract, so binding may be indirect.
# What was measured:
# Assay in all cases: pull-down
# Conditions in all cases: 150 mM NaCl, 50 mM Tris pH 8.0, 0.25% NP-40, 1 mM DTT; 4 C, 2 h; 100 ug nuclear extract; double strand, one strand shown
# APTX (Homo sapiens) = APTX (Homo sapiens) (UniProt Q7Z2E3)
# BANF1 (Homo sapiens) = molecular target: T1, BANF1 (Homo sapiens) (UniProt O75531)
# T1 sequence: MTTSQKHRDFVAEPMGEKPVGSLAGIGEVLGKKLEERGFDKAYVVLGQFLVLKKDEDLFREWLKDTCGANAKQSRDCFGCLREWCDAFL
# BCOR (Homo sapiens) = BCOR (Homo sapiens) (UniProt Q6W2J9)
# Chain of UniProt Q6W2J9 (Q6W2J9 whole entry): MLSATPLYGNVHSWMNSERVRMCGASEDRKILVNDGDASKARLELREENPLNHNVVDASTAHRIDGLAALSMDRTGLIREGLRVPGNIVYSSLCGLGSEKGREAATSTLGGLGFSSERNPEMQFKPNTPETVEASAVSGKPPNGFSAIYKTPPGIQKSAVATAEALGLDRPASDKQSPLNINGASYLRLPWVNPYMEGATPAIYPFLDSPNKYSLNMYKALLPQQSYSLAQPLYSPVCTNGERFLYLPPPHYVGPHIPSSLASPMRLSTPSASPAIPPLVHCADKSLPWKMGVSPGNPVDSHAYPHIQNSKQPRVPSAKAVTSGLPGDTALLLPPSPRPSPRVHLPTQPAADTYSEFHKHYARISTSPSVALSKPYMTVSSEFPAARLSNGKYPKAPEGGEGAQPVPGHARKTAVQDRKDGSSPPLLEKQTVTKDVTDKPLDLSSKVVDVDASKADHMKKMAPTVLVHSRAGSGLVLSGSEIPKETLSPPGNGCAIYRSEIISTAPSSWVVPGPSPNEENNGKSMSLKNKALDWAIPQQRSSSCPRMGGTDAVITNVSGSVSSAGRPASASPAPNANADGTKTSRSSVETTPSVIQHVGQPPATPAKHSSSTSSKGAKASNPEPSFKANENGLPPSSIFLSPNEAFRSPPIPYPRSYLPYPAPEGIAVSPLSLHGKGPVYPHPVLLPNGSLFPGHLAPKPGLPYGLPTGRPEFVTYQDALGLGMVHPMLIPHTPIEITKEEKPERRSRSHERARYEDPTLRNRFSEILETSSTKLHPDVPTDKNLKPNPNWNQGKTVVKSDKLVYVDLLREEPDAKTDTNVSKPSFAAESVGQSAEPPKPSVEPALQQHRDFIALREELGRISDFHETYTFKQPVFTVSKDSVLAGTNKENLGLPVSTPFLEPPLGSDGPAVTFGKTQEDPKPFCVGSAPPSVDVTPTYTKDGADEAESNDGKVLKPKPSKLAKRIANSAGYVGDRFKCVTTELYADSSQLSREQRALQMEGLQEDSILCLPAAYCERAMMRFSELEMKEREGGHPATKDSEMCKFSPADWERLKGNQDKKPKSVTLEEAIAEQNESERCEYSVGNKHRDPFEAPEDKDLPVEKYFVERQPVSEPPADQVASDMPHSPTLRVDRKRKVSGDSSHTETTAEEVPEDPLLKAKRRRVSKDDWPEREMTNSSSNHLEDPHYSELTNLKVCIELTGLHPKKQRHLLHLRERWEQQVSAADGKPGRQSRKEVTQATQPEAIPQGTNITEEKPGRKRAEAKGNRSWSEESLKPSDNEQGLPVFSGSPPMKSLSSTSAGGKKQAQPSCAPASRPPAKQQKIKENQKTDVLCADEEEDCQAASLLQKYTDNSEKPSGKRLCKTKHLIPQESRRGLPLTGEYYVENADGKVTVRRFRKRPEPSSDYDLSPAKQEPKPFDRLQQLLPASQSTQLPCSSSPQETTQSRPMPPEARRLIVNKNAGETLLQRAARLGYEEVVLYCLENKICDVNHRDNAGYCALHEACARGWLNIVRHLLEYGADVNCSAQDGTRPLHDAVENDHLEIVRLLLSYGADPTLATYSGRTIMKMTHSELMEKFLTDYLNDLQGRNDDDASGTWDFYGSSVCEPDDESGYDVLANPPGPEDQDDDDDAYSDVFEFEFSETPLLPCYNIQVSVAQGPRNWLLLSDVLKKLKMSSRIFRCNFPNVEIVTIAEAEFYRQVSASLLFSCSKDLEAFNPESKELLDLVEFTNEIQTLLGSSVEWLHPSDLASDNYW
# CREB1 = CREB1 (UniProt P16220)
# Chain of UniProt P16220 (P16220 other isoform, or with tags, fused parts or gaps): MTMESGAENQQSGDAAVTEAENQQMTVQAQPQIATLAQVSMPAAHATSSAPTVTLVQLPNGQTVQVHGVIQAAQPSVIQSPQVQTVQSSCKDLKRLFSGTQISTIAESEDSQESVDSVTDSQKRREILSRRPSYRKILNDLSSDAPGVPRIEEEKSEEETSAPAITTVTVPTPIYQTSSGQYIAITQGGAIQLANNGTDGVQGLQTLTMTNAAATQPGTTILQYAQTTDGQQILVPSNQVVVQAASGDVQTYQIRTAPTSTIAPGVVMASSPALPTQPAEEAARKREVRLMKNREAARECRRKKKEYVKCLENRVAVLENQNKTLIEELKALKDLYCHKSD
# DDB1 (Homo sapiens) = DDB1 (Homo sapiens) (UniProt Q16531)
# HLTF (Homo sapiens) = molecular target: T2, HLTF (Homo sapiens) (UniProt Q14527)
# T2 sequence: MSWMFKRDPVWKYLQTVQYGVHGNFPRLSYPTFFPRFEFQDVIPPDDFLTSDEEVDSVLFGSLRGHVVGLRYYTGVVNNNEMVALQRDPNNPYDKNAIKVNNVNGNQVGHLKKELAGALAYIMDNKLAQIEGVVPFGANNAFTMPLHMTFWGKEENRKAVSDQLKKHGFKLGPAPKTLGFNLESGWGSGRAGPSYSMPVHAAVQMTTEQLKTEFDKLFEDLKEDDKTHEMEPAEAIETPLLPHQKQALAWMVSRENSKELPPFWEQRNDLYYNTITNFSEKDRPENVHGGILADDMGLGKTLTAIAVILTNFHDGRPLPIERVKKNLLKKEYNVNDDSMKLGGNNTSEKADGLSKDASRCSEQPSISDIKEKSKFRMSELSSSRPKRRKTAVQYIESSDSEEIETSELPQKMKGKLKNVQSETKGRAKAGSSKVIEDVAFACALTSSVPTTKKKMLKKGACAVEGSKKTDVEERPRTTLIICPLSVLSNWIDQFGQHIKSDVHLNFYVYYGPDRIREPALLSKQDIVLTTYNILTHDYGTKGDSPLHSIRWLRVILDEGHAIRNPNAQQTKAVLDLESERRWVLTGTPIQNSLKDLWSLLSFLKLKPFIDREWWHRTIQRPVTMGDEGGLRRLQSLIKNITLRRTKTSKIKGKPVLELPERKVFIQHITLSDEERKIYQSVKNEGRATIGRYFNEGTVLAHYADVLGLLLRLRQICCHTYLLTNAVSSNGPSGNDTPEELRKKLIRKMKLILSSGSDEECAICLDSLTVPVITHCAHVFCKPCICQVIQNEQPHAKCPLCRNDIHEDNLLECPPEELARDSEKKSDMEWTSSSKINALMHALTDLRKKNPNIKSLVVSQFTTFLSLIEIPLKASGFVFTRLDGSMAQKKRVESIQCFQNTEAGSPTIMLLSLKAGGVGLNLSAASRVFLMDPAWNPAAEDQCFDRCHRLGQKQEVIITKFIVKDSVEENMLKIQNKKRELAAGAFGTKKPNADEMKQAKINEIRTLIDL
# HNRNPH3 (Homo sapiens) = molecular target: T3, HNRNPH3 (Homo sapiens) (UniProt P31942)
# T3 sequence: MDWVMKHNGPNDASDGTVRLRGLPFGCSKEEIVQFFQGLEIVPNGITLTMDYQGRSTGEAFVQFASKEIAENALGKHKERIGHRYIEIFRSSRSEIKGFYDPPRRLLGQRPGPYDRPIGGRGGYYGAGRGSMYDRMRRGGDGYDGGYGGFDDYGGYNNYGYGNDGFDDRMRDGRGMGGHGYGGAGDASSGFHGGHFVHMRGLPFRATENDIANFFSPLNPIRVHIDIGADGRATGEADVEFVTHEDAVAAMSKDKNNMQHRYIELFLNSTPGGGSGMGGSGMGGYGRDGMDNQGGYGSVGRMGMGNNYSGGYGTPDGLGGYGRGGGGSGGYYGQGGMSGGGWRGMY
# HSPA1B (Homo sapiens) = HSPA1B (Homo sapiens) (UniProt P0DMV9)
# HSPA5 (Homo sapiens) = HSPA5 (Homo sapiens) (UniProt P11021)
# Chain of UniProt P11021 (P11021 whole entry): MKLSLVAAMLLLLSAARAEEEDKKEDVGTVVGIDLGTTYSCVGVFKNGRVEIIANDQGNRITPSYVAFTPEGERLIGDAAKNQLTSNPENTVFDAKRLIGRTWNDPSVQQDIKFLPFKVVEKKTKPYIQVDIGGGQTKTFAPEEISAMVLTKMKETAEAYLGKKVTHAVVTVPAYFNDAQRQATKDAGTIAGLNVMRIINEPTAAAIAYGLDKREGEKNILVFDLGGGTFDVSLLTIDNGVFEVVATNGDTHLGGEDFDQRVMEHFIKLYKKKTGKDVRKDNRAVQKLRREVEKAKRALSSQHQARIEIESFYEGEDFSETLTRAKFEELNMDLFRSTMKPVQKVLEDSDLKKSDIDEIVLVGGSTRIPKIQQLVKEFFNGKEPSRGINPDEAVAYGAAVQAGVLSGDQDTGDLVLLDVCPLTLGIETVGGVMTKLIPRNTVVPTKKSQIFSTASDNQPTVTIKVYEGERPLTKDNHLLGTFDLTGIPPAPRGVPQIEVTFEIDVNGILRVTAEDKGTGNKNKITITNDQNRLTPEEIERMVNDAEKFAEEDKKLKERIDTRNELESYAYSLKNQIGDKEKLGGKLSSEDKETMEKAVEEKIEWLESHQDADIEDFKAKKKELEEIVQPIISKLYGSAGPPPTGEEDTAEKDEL
# HSPA8 (Homo sapiens) = HSPA8 (Homo sapiens) (UniProt P11142)
# HSPA9 (Homo sapiens) = HSPA9 (Homo sapiens) (UniProt P38646)
# Chain of UniProt P38646 (P38646 whole entry): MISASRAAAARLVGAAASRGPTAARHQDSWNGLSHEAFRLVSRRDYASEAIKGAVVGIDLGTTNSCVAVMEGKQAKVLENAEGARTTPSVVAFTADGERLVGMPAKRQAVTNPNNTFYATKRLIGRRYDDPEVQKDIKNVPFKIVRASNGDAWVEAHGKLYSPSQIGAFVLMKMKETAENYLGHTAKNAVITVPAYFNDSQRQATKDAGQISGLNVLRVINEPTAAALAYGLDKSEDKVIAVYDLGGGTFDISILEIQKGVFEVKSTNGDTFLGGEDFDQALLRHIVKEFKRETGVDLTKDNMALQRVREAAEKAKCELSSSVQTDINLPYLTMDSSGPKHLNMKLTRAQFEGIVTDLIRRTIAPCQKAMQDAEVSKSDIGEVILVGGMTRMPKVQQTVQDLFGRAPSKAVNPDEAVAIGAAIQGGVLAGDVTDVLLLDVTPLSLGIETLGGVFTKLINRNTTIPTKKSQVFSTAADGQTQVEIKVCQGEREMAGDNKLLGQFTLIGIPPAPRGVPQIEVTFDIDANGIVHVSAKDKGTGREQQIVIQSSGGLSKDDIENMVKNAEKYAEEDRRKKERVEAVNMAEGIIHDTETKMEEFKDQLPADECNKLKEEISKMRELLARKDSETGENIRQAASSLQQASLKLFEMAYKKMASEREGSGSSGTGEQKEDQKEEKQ
# KDM2B (Homo sapiens) = molecular target: T4, KDM2B (Homo sapiens) (UniProt Q8NHM5)
# T4 sequence: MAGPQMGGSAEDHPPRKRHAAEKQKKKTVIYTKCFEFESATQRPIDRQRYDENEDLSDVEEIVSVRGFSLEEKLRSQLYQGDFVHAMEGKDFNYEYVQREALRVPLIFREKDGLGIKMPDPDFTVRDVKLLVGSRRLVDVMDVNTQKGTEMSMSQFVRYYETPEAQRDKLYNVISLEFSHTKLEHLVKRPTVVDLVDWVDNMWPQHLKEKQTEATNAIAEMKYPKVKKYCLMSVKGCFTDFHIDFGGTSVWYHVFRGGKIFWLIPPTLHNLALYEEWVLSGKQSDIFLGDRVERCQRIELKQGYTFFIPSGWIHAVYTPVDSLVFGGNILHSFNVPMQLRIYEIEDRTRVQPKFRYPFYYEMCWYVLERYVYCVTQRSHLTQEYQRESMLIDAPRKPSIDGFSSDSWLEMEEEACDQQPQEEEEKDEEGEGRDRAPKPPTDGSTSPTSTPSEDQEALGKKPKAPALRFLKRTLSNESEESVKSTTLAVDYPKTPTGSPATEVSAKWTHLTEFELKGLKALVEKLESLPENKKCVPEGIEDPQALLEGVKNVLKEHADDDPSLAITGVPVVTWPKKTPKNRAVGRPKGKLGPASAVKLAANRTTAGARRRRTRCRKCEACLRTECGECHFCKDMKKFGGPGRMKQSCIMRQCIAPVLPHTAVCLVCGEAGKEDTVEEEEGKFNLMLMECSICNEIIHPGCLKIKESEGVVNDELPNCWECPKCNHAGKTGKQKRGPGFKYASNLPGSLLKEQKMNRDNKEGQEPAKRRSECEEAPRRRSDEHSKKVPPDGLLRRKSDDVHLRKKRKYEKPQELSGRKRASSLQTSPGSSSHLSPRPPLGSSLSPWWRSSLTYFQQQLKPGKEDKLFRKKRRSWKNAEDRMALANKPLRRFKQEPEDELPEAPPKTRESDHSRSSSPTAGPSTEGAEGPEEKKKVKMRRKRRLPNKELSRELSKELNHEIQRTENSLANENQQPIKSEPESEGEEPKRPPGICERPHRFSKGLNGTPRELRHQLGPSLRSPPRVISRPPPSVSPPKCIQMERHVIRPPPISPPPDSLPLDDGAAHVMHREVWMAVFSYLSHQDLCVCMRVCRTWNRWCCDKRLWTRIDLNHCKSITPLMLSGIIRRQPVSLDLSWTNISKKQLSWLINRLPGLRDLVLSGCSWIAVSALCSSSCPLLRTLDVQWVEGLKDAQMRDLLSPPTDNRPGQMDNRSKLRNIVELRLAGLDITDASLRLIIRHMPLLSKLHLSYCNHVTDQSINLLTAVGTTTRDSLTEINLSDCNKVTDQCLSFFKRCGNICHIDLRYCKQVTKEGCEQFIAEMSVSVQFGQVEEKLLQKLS
# HMGA1 (Homo sapiens) [1] = molecular target: T5, HMGA1 (Homo sapiens) (UniProt P17096)
# T5 sequence: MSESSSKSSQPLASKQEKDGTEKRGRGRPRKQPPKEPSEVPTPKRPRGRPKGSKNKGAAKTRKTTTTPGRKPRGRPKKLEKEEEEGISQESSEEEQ
# HMGA1 (Homo sapiens) [2] = molecular target: T6, HMGA1 (Homo sapiens) (UniProt P17096); remark: listed apart in the source
# T6 sequence: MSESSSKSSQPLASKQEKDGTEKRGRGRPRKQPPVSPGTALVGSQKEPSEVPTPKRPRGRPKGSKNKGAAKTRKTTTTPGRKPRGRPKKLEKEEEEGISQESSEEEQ
# Chain of UniProt Q7Z2E3 (Q7Z2E3 whole entry): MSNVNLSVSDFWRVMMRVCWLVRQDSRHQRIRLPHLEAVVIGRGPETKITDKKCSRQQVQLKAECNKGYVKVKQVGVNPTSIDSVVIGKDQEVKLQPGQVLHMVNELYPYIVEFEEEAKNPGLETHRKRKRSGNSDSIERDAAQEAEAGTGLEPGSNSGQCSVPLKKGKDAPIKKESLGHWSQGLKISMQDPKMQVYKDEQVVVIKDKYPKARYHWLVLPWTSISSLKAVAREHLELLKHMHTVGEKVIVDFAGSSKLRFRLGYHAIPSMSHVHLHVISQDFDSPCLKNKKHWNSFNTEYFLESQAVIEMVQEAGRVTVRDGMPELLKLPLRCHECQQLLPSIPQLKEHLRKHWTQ
sequence,measurement,setting,value
GCCGCCGCCCTCCCACGCGCTGCCGGGCC [BEND3 bait],half-maximal binding,APTX (Homo sapiens),191 nM
same,half-maximal binding,BANF1 (Homo sapiens),301 nM
same,half-maximal binding,BCOR (Homo sapiens),546 nM
same,half-maximal binding,CREB1,238 nM
same,half-maximal binding,DDB1 (Homo sapiens),266 nM
same,half-maximal binding,HLTF (Homo sapiens),401 nM
same,half-maximal binding,HNRNPH3 (Homo sapiens),110 nM
same,half-maximal binding,HSPA1B (Homo sapiens),448 nM
same,half-maximal binding,HSPA5 (Homo sapiens),380 nM
same,half-maximal binding,HSPA8 (Homo sapiens),262 nM
same,half-maximal binding,HSPA9 (Homo sapiens),178 nM
same,half-maximal binding,KDM2B (Homo sapiens),397 nM
GAGAGAAAATAAAACTGGCT [SP/KLF negative control bait],half-maximal binding,APTX (Homo sapiens),500 nM
same,half-maximal binding,BANF1 (Homo sapiens),633 nM
same,half-maximal binding,HMGA1 (Homo sapiens) [1],446 nM
same,half-maximal binding,HMGA1 (Homo sapiens) [2],448 nM
